# The campaign covered roughly 310,000 compounds. About 2,200 (0.71%) showed an effect of 50% or more. Effects have a minus sign here. The list shows a part of the results.
# Biological target: human ether-à-go-go-related gene (hERG) potassium channel (human, UniProt Q12809)
# Assay: primary screen, population patch clamp on CHO cells stably expressing hERG
# Chain of human ether-à-go-go-related gene (hERG) potassium channel (Q12809 whole entry, looked up): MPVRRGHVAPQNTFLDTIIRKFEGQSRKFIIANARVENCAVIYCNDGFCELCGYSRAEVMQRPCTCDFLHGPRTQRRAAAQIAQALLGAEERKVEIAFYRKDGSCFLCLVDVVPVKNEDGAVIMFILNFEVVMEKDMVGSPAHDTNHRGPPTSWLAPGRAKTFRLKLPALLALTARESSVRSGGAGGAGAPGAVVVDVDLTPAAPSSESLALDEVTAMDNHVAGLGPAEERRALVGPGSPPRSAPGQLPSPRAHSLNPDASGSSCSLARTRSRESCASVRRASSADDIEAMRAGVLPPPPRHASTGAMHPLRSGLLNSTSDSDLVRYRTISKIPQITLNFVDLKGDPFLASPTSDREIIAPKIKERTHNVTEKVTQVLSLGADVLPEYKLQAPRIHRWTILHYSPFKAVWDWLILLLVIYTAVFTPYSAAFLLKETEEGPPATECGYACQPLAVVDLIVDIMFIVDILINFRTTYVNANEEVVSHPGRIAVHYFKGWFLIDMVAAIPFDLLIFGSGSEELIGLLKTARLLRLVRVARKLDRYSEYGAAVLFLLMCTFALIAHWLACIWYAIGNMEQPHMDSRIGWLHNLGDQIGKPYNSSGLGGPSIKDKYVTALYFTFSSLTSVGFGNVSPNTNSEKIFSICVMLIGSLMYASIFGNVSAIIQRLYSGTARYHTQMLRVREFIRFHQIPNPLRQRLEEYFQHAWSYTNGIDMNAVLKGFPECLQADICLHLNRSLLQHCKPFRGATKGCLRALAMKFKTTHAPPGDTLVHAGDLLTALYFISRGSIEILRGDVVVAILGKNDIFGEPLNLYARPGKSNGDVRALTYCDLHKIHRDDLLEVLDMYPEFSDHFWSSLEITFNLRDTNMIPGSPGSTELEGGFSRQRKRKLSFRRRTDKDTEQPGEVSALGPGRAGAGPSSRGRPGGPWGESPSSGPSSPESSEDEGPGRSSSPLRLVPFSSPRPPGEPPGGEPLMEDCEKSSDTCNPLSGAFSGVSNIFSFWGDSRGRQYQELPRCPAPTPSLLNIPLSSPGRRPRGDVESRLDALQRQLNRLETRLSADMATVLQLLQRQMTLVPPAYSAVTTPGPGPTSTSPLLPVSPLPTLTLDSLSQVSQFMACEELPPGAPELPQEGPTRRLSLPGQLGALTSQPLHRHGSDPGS
row,SMILES,"hERG current change (%, negative = inhibition) at 1uM"
1,CCN(CC(=O)NC(C)C)C(=O)[C@@H](NC(=O)c1ccco1)C(C)C,14.5%
2,O=C(c1cn(-c2ccccc2)nc1-c1ccc(F)cc1)N1CCCCC1,7.04%
3,CN(C)c1ccc(C(=O)Nc2cccc(S(=O)(=O)NC3=NCCCCC3)c2)cc1,12.2%
4,Cc1cc(CNC(=O)COC(=O)c2ccc(Cl)c(N)c2)cc(C)c1O,9.01%
5,O=c1oc2ccccc2c(N2CCOCC2)c1[N+](=O)[O-],7.66%
6,O=C(Nc1ccc2c(c1)OCCO2)c1cccnc1Oc1ccccc1,13%
7,Cc1nc2ccccc2c(C)c1C(=O)c1ccc(F)cc1.Cl,11.9%
8,Cc1ccc(S(=O)(=O)NCc2csc(C)n2)c(C)c1,2.05%
9,COC(=O)c1[nH]c2c(c1C)C(=O)CC(c1ccc(OC)cc1)C2 (stereo not drawn),4.78%
10,CN(C)C(=O)Cn1cnc2c(cnn2-c2ccc(F)cc2)c1=O,6.91%
11,COc1cc(/C=C/C(=O)OCC(=O)NCc2ccco2)ccc1OC(F)F,12.1%
12,COc1ccc(S(N)(=O)=O)cc1-c1nnc2c3ccccc3c(C)nn12,14.6%
13,Cc1cccc(NC(=O)c2cc3cc([N+](=O)[O-])ccc3s2)n1,5.94%
14,COc1ccc(NC(=O)CSc2nnc(-c3cccs3)n2C)cc1OC,10.8%
15,CCOc1ccc(Nc2nc(N(C)c3ccccc3)nc(N)c2[N+](=O)[O-])cc1,10.4%
16,CC(C)(C)NS(=O)(=O)c1ccc(CCC(=O)O)cc1,-2.17%
17,O=C(Nc1ccc(Cl)cc1)Nc1nnc(CSCc2ccccc2Cl)s1,10.2%
18,COc1ccccc1NC(=O)CCC(=O)Nc1nnc(C(F)(F)F)s1,6.82%
19,COc1ccc(CNC(=O)C2CCCN2)cc1OC.O=C(O)C(=O)O (stereo not drawn),11.5%
20,CC(OC(=O)c1nsc(Cl)c1Cl)C(=O)NCc1ccc2c(c1)OCO2 (stereo not drawn),-2.16%
21,O=C(Nc1nc(-c2ccccn2)cs1)c1cc2ccccc2o1,11.8%
22,COc1cccc(C2NC(CCSC)(C(=O)O)C3C(=O)N(C(C)C)C(=O)C23)c1O (stereo not drawn),-11.9%
23,O=C(CCn1cccc1)NCc1ccccc1,10.3%

row,SMILES,"hERG current change (%, negative = inhibition) at 1uM"
1,O=C(N=Nc1c(O)[nH]c2ccc(Br)cc12)c1cc(-c2cccc3ccccc23)n[nH]1,8.42%
2,Cc1cccc(NC(=O)C(C)n2cc([N+](=O)[O-])cn2)n1 (stereo not drawn),7.46%
3,CCc1cccc(OCC2Cn3c(nc4c3c(=O)n(C)c(=O)n4C)O2)c1 (stereo not drawn),9.79%
4,CCOC(=O)CC1CCCCN1C(=O)c1ccc2nc(CCOC)oc2c1 (stereo not drawn),12.2%
5,CN(CC(=O)Nc1ccc(F)cc1Cl)Cc1cccs1,11.6%
6,COc1ccc(C(=O)Nc2cccc(/C(C)=N/NC(=O)c3ccc([N+](=O)[O-])c(C)c3)c2)cc1OC,-3.85%
7,O=C(CN1CCN(c2ccccc2F)CC1)NCc1ccccc1,7.79%
8,O=C(NC(=S)NNC(=O)c1cccs1)c1ccco1,6.64%
9,COC(=O)C1=C(N)OC2=C(C(=O)CC(C)(C)C2)C1c1cc2c(cc1Cl)OCO2 (stereo not drawn),15%
10,CC1CC(C)CN(C(=O)C(NS(=O)(=O)c2ccc3c(c2)oc(=O)n3C)C(C)C)C1 (stereo not drawn),6.54%
11,COc1ccc(N2CC(C(=O)Nc3c(C(N)=O)oc4ccccc34)CC2=O)cc1 (stereo not drawn),7.99%
12,CCCCOc1ccc2c(c1)C(=O)c1cc(O)ccc1-2,10.1%
13,CCN1/C(=C/c2cc[n+](C)cc2)C=Cc2cc(C)ccc21.[I-],-55.5%
14,CCn1c2ccccc2c2cc(/C=N/O)ccc21,27.3%
15,COC(=O)c1cccc(NC(=O)Cc2ccc(OC)cc2)c1C,15.3%
16,Cc1ccn2c(-c3csc(NCc4ccccc4)n3)c(C)nc2c1.Cl,-4.54%
17,Cc1oc(C(C)(C)C)c(CN2CCCC2)c1C(=O)O.Cl,15.5%
18,CC(=O)[C@@]1(O)CC[C@H]2[C@@H]3C[C@H](C)C4=CC(=O)C=C[C@]4(C)[C@@]3(F)[C@@H](O)C[C@@]21C,13.3%
19,CCNc1nc(SCCOc2ccccc2)nc(N(C)C)n1,3.28%
20,COC(=O)C1CCN(Cc2nnc(-c3ccccc3)o2)CC1,12.2%
21,O=C(OCn1nnc2ccccc2c1=O)c1cc2ccccc2o1,3.04%
22,Cc1csc(N(C(=O)c2cccc(S(=O)(=O)N(C)C)c2)c2ccccc2)n1,2.97%
23,O=C(NC1CC1)C1=NOC(CNc2ncc(C(F)(F)F)cc2Cl)C1 (stereo not drawn),-18.9%

row,SMILES,"hERG current change (%, negative = inhibition) at 1uM"
1,COc1ccc(OC)c(/C=N/c2c(-c3ccc(O)c(OC)c3)nc3ccccn23)c1,7.11%
2,CC(=O)N1CCN(c2ccc(NCc3ccco3)cc2)CC1,4.78%
3,CN(C)C(=O)c1nc2ccc(Cl)cn2c1CN1CCCC(OCc2cccnc2)C1 (stereo not drawn),-19.4%
4,CCOC(=O)N1CCN(C(=O)c2cn(CC)c3ccc(S(=O)(=O)N4CCCC4)cc3c2=O)CC1,5.16%
5,O=C(CCNC(=O)c1ccc(Br)cc1)Nc1cc(Cl)ccc1-n1cncn1,-13.5%
6,CCC(CC)C(=O)NCCc1ccc(F)cc1,10.2%
7,CCOC(=O)c1c(C)[nH]c(C(=O)N2CCN(c3ccc(OC)cc3)CC2)c1C,10.8%
8,COc1ccc(-n2c(=S)[nH]c3sc4c(c3c2=O)CCc2ccccc2-4)cc1,11.5%
9,COCCCNc1nc2ccccc2nc1NS(=O)(=O)c1ccc(F)cc1,14.8%
10,COC(=O)c1c(NC(=O)c2ccco2)sc2c1C(C(=O)OC)CC2 (stereo not drawn),2.77%
11,CC(=O)c1c(C)[nH]c(C(=O)COC(=O)c2c(C)noc2C)c1C,4.98%
12,O=S(=O)(Cc1ccccc1)Nc1cccc(Br)c1,15.6%
13,COc1ccccc1CNc1nc2nc(C)cc(=O)n2[nH]1,10.9%
14,O=C(CCCc1c[nH]c2ccccc12)Nc1ccc(S(=O)(=O)Nc2ncccn2)cc1,-6.19%
15,C=C(C)C1CC=C(C)/C(=N/Nc2ccccc2[N+](=O)[O-])C1 (stereo not drawn),16.4%
16,O=C(CCN1CCN(c2ccccc2F)CC1)Nc1ccc2c(c1)OCO2,-0.232%
17,Cc1cccc(NC(=O)CNC(=O)COc2cc(F)ccc2[N+](=O)[O-])c1C,15.4%
18,Cc1ccc(CN=C2Nc3ccccc3CS2)cc1,14%
19,Cc1ccc(C)c(S(=O)(=O)NCc2ccncc2)c1,5.02%
20,CC(C)COc1ccc(/C(O)=C2/C(=O)C(=O)N(CCN(C)C)C2c2ccncc2)cc1 (stereo not drawn),12.9%
21,CC1CCCN(C(=S)SCC(=O)c2cc(Br)cc(Br)c2O)C1 (stereo not drawn),10.2%
22,CC(O)/C=C/c1ccc2ccccc2n1 (stereo not drawn),3.65%
23,CC(=O)/C(=N/Nc1ccccc1Cl)Sc1nnc(C(O)c2ccccc2)n1-c1ccccc1 (stereo not drawn),12.8%

row,SMILES,"hERG current change (%, negative = inhibition) at 1uM"
1,O=C(COc1ccccc1)NCC(=O)Nc1cccc2ccccc12,5.54%
2,COc1ccccc1N=C(C)C1=C(O)COC1=O,18.2%
3,CN(CC(=O)NCCc1ccc(S(N)(=O)=O)cc1)CC(=O)Nc1ccccc1Cl,-0.838%
4,COc1ccc(CNC(=S)Nc2ccc(F)c(Cl)c2)cc1OC,7.16%
5,CN(C)C(=S)N=Nc1[nH]c2ccccc2c1O,19.5%
6,Cc1cccc(C)c1NC(=S)NCc1ccccc1,8.29%
7,Cc1ccc(CNS(=O)(=O)c2ccc([N+](=O)[O-])cc2)cc1,17.1%
8,CCOc1cc(/C=C/C(=O)O)ccc1OCc1ccccc1,7.7%
9,COCCN(C(=O)c1ccccc1F)c1nnc(-c2ccc(OC)cc2)s1,11.6%
10,Cc1ccc(CN2CCNC(=O)C2CC(=O)NC2CCCCCC2)o1 (stereo not drawn),7.02%
11,COc1ccc(CNC(=O)Nc2cccc3ccccc23)cc1,10.7%
12,CCn1cc(/C=C/C(=O)NCc2c(C)nn(C)c2C)cn1,-1.21%
13,COCCNC(=O)C(=O)Nc1cc2c3c(c1)CC(=O)N3CCC2,16.5%
14,CC(C)Cc1nc(N2CCOCC2)c(C#N)c2c1COC(C)(C)C2,-0.329%
15,Clc1ccc(-c2nnc(-c3ccccc3)nc2-c2c[nH]c3ccccc23)cc1,8.98%
16,O=C(COc1ccccc1Cl)N1CCCCCCC1,7.29%
17,O=C(CSc1nnc(-c2cc3ccccc3cc2O)n1Cc1ccco1)c1ccc(F)cc1,-3.39%
18,COc1ccc(-n2nc(C(=O)NCc3cc(OC)ccc3OC)c3c4ccccc4n(C)c3c2=O)cc1,16.4%
19,COc1ccccc1NC(=O)N1CCCC1,17.6%
20,COc1cc(C(=O)Nc2nccs2)ccc1OCc1c(C)noc1C,12.2%
21,COC(=O)c1ccc(CNC(=O)CCNC(=O)c2ccco2)cc1,1.62%
